Test results published in patent US8828926B2, “Uses of natriuretic peptide constructs” (priority 2010, dated 2014).
For at least one compound, name, drawing or mass did not settle the structure. Positions of bridges follow the written chain, without caps; N, C: chain ends. Non-standard residues stand in square brackets, D forms with d. Residues, ends and D or L forms follow the SMILES beside them. *: point of attachment. X1 = N=C(N)NCCC[C@H]1C(=O)N[C@@H](C(N)=O)CN1*; dNle = CCCC[C@@H](N)C(=O)O; Heptanoyl = CCCCCCC(=O)*

Assays:
[1] = tested on: guinea pig trachea; assay: Relaxation of guinea pig trachea precontracted with carbachol; format: cell-based; details: n=3
[2] = tested on: bronchoconstrictor response evoked by methacholine; assay: Methacholine-evoked bronchoconstriction in anesthetized guinea pigs, intratracheal delivery; format: in vivo, guinea pigs (Dunkin Hartley)
Experimental: Studies were conducted with intratracheal (IT) delivery of the construct of formula IV in anesthetized guinea pigs (Dunkin Hartley) challenged with the muscarinic receptor agonist, methacholine. […] The inhibition was maintained for all doses after the 60 minute pretreatment time. The duration of action of 10 μg/kg and 100 μg/kg doses of the construct of formula IV was explored (FIGS. 4C and 4D). For both doses the inhibition extended to 120 minutes post-administration, although it was reduced, with inhibitory effect absent after 240 minutes pretreatment.

[3] = tested on: Dog NPR-A; assay: Competitive binding, HEK cell line expressing recombinant dog NPRA; details: dog NPRA expressed in HEK cells; mean ± SD
[4] = tested on: tracheal rings; assay: Relaxation of rat tracheal rings pre-contracted with carbachol; format: cell-based, Wistar rats; details: 1 μM carbachol, average of triplicates
[5] = biological target: T1, hNPRB (human NPRB) (Homo sapiens, UniProt P20594); assay: NPRB functional assay (cGMP generation) in HEK cell line; format: cell-based; details: concentrations up to 10 μM; n=8
T1 construct: expressed in transfected cells; host or cells: HEK cell line
T1 sequence (P20594 23-1047): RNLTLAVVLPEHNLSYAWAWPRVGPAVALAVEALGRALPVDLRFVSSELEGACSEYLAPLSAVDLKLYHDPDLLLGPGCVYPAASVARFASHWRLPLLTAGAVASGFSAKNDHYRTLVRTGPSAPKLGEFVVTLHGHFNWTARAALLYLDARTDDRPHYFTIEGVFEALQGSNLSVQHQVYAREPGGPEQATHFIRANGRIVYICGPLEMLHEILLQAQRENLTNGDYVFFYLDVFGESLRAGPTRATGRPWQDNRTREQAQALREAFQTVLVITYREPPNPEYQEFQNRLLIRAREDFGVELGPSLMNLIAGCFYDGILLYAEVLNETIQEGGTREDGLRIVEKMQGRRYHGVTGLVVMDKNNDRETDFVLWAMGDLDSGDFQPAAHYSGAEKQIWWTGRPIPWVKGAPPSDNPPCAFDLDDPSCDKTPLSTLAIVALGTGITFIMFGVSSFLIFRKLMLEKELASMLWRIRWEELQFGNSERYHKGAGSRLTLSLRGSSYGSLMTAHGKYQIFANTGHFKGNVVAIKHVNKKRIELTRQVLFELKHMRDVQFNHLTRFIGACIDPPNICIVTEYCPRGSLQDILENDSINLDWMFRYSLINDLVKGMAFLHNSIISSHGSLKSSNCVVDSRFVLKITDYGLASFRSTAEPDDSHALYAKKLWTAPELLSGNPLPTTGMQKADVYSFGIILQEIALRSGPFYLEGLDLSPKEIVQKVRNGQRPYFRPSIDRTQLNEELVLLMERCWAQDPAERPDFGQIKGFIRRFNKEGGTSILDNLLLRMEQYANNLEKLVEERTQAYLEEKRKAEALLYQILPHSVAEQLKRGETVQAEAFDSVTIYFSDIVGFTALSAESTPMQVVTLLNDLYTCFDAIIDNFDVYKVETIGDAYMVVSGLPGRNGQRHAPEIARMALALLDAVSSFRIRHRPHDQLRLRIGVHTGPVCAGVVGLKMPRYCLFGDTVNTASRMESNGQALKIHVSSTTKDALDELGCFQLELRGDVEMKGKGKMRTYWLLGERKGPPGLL

[6] = tested on: Dog NPR-A; assay: cGMP generation in HEK cells expressing dog NPRA; format: cell-based; details: mean ± SD
[7] = Human clinical trial, subcutaneous formulation: half life and plasma cGMP; format: in vivo
[8] = biological target: T2, hNPRC (human NPRC) (Homo sapiens, UniProt P17342); assay: NPRC binding study in HEK cell line; details: human NPRC Ki versus NPRA Ki
T2 construct: expressed in transfected cells; host or cells: HEK cell line
T2 sequence (P17342 27-541): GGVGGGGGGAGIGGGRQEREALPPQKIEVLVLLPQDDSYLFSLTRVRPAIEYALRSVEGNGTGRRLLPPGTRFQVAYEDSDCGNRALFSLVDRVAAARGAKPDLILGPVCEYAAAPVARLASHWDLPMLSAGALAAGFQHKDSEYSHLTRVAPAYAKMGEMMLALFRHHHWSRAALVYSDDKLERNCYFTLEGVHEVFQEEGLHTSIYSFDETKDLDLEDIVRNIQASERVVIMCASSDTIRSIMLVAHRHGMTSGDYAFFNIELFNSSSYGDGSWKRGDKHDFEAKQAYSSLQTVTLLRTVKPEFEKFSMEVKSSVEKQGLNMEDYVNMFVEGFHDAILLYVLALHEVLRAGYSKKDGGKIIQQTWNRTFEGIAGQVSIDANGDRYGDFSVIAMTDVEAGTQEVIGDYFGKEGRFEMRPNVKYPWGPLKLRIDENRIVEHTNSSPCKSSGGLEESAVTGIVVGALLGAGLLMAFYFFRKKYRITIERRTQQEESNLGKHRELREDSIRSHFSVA

[9] = tested on: human lung tissues; assay: Human precision-cut lung slice relaxation, precontracted with carbachol; format: cell-based

## CCCCCCC(=O)N[C@H]1CSSC[C@@H](C(=O)N[C@@H](Cc2ccc(O)cc2)C(=O)N2C[C@H](C(N)=O)NC(=O)[C@@H]2CCCNC(=N)N)NC(=O)[C@H](CO)NC(=O)[C@H]([C@@H](C)CC)NC(=O)[C@H](CCCNC(=N)N)NC(=O)[C@H](CC(=O)O)NC(=O)[C@@H](CCCC)NC(=O)[C@H](CCCNC(=N)N)NC(=O)CNC(=O)[C@@H](C)NC(=O)[C@H](Cc2ccccc2)NC(=O)[C@H](Cc2c[nH]cn2)NC1=O [construct of formula IV] (Heptanoyl-CHF[dA]GR[dNle]DRISCY-X1; disulfide 1-12)
[1]
  maximum relaxation, % of that produced by salbutamol: 83.6%
[2]; 10 μg/kg and 100 μg/kg IT
  inhibitory effect after 240 minutes pretreatment: absent
[2]; 10 μg/kg and 100 μg/kg IT, post-administration, inhibition reduced
  duration of action: inhibition extended to: 120 min
[2]; all doses, IT
  inhibition after the 60 minute pretreatment time: maintained
[3]
  Ki: 41 nM
[4]; 0.1 μM
  inhibition of contraction (relaxation): 6%
[4]; 1 μM
  inhibition of contraction (relaxation): 10%
[4]; 10 μM
  inhibition of contraction (relaxation): 19%
[5]
  Effect in NPRB functional assays (cGMP generation): without effect
[6]
  Function (cGMP) Emax (% of ANP response): 94 ± 11 % of ANP response
[6]; read-out: Function (cGMP) EC50
  EC50: 3 ± 1 nM
[7]; 0.3 μg/kg single subcutaneous injection
  mean peak increase in plasma cGMP concentration: 1.7 ng/mL
[7]; subcutaneously administered formulation
  half life: approximately 3 hours
[8]
  Fold lower affinity for NPRC than for NPRA: ~7 fold
[9]; 10 μM, human lung preparations precontracted with carbachol
  effect on the relaxant effects of isoproterenol: potentiated
[9]; human lung slice relaxation
  fold more potent than hBNP: 30 fold
[9]; human lung slices, construct maximum obtained at 1 μM
  maximum relaxation, % of the contractile response to carbachol: 22%
[9]; in the presence of the construct of formula IV (10 μM), n=4, P=0.04
  Isoproterenol-mediated broncho-dilatation: 108.5±5.0%
